From article PMC5436228
Results are given in words; binding and its absence hold for the method and conditions named. In cells and extracts the contact can be indirect. Some results given as binding are weak or reduced against the parent protein; the word gives no strength.

Experiments:
Assay in all cases: co-IP; HEK293TN cells double transfected; 250 μg lysate (NP-40 lysis buffer) incubated 30 min at room temperature with protein G-Dynabeads bound to rabbit anti-GFP; blots with anti-FLAG M2, anti-GFP (JL-8) or anti-RIM1/2
[1] = molecular target: Munc13-1 WT fused C terminally with GFP (rat) (UniProt Q62768)
[2] = molecular target: Munc13-1 (K32E, E128K, E137K) fused C terminally with GFP (rat) (UniProt Q62768)
[3] = molecular target: Munc13-1 (K32E) fused C terminally with GFP (rat) (UniProt Q62768)
[4] = molecular target: Munc13-1 (E128K, E137K) fused C terminally with GFP (rat) (UniProt Q62768)

| binding [1] | binding [2] | binding [3] | binding [4] | Substance |
| --- | --- | --- | --- | --- |
| binds | no binding | no binding | binds | Munc13-1 with 3xFLAG fused to the C terminus (from UniProt Q62768 1-1735) |
| binds | binds | binds | binds | full-length RIM-1α fused C terminally to a red fluorescent protein (RFP) (from UniProt Q9JIR4 1-1615) |
